From PubChem BioAssay AID463173 (ICCB-Longwood Screening Facility, Harvard Medical School, 2010)
Out of some 52,000 compounds screened, about 1,700 (3.3%) were called active. No stated cut-off is given here; in the data, active means survival mostly below about 52% (no sharp cut-off); inactive means mostly above about 56%. The list shows a part of the results.

tested on: Wild type; test: growth inhibition of S. aureus wild type versus tarO mutant, primary screen, teichoic acid synthesis inhibitors, RN4220, OD600 (AID 463173); settings: S. aureus RN4220 wild type/DeltatarO growth, OD600, 18 h, stronger effect = lower value, screened at 18.75 µg/mL (by protocol)

SMILES	survival
COc1ccc(-c2nc3ccccc3o2)cc1N	inactive: 137%
Cc1ccc(-n2c3c(cc(C(=O)NCc4ccco4)c2=O)C(=O)CCC3)cc1	inactive: 85%
Cc1cc(C)c2sc(N3CCN(C(=O)C4CC4)CC3)nc2c1	inactive: 134%
CSc1ccc(CCNc2ncnc3onc(-c4ccc(Cl)cc4)c23)cc1	inactive: 93%
Cc1cc(C)c(NC(=O)Cn2c(=O)n(-c3ccc(F)cc3)c(=O)c3c(C)c(C(=O)N(C)C)sc32)c(C)c1	inactive: 93%
O=C(Nc1ccccc1O)c1cccc(S(=O)(=O)Nc2ccccc2O)c1	inactive: 108%
CCc1ccc2ncc3c(-c4ccc(C)cc4)nn(CC(=O)Nc4ccc(C)cc4)c3c2c1	inactive: 47%
COc1ccc(Oc2nc3c(C)cccn3c(=O)c2/C=C(\C#N)c2nc3ccccc3[nH]2)cc1	inactive: 71%
Cc1cc(NC(=O)CC(C)C)c(=O)n(Cc2ccccc2F)c1	inactive: 107%
COC(=O)c1cc2occc2n1Cc1nc(-c2cccc(Br)c2)oc1C	inactive: 78%
COc1ccc(C(=O)c2sc(Nc3cc(Cl)ccc3C)nc2N)cc1OC	inactive: 129%
CCOc1cc(C2Sc3ccccc3NC3=C2C(=O)c2ccccc23)ccc1O (stereo not drawn)	inactive: 36%
COc1ccc(C(=O)Nc2ccccc2-c2nc3ccccc3s2)c(OC)c1	inactive: 124%
O=C(CSC1CC(=O)N(c2ccccc2)C1=O)Nc1ccc(F)cc1 (stereo not drawn)	inactive: 82%
CCOC(=O)c1ccc(NC(=O)CC2C(=O)N(c3ccc(F)cc3)C(=O)N2Cc2ccc(C)cc2)cc1 (stereo not drawn)	inactive: 61%
COc1ccc(Nc2cc(C(=O)NCCCN(C)Cc3ccccc3)c3ccccc3n2)cc1	inactive: 120%
CCOC(=O)c1cnc2ccc(Cl)cc2c1Nc1ccc(OCC)cc1	active: -3%
CN1C(=O)CC(NCc2ccc(S(N)(=O)=O)cc2)C1=O (stereo not drawn)	inactive: 103%
CC(=O)c1ccc(NC(=O)CCc2nc(-c3ccc(C)cc3)no2)cc1	inactive: 91%
CC(=O)c1ccc(NC(=O)CSc2nc(C3CCCC3)nc3c2c(=O)n(C)c(=O)n3C)cc1	inactive: 70%

SMILES	survival
Cc1nc(-n2nc(C)c(CCC(C)C)c2C)sc1C(=O)Nc1ccc(Br)cc1	inactive: 88%
Cc1cccn2c(=O)cc(COc3cccc(NC(=O)COc4ccccc4)c3)nc12	inactive: 80%
CC(C)OCCCNC(=O)CSc1c2c(nc3ccc(Cl)cc13)CCCC2	inactive: 75%
COc1cccc(-c2nc3c(c(SCC(=O)Nc4cc(C)ccc4C)n2)Cc2c(CO)cnc(C)c2O3)c1	inactive: 88%
Cc1cc(=O)[nH]c(NCCO)n1	inactive: 100%
COc1ccc(CCNC(=O)CCCn2c(SCC(N)=O)nc3cc4c(cc3c2=O)OCO4)cc1OC	inactive: 81%
CCOC(=O)N1CCc2c(sc3c2c(=O)n(Cc2ccccc2)c(=O)n3Cc2ccc(C)cc2)C1	inactive: 96%
COc1ccc(NC(=O)C2(c3ccc(OC)cc3)CCOCC2)cc1	inactive: 103%
CC1CCN(c2oc(-c3ccc(COc4ccc(Cl)cc4)o3)nc2C#N)CC1	inactive: 110%
CCCCOc1ccccc1C(=O)Nc1onc2c1CCCC2	inactive: 85%
CSc1ccc(CNC(=O)CCc2c(C)nn(-c3ccc(N4CCCC4)nn3)c2C)cc1	inactive: 65%
COC(=O)C12CC3CC(CC(C(=O)OC)(C1)C3=O)C2=O	inactive: 103%
COc1ccc(CNC(=O)C2=C(C)C(=O)OC23CCN(C(C)=O)CC3)cc1	inactive: 113%
Cc1cc(C)c2nc(NC(=O)c3ccc(S(=O)(=O)N4CCC(C)CC4)cc3)sc2c1	inactive: 79%
CCOc1ccccc1CNC(=O)c1ccc(Cn2c(SCc3ccccc3)nc3cccnc32)cc1	inactive: 69%
Cc1ccc(-c2noc(C3CCN(C(=O)Nc4ccc(C#N)cc4)CC3)n2)o1	inactive: 102%
CCc1ccc2nc(SCC(=O)N3CC(=O)Nc4ccccc43)c(C#N)cc2c1	inactive: 113%
CC(C)OC(=O)/C(C#N)=C/c1ccc(-c2ccc(Cl)c(Cl)c2)o1	inactive: 78%
COC(=O)c1ccc(CSc2nnc(-c3ccccc3)o2)o1	inactive: 113%
CCOC(=O)c1cc(-c2ccccc2)n(-c2cccc(C(=O)N(C)c3ccc(C)cc3)c2)c1C	inactive: 73%

SMILES	survival
CN1CCN(Cc2nc(N)nc(Nc3ccccc3)n2)CC1	inactive: 104%
CC(C)C1Oc2ccccc2N(CC(=O)N(CCCN2CCOCC2)Cc2ccc(F)cc2)C1=O (stereo not drawn)	inactive: 117%
Fc1ccc(N2CCN(Cc3cccn3-c3nnc(N4CCN(C5CCCCC5)CC4)s3)CC2)cc1	inactive: 128%
Cc1ccc(NC(=O)C2CCCN(c3cnccn3)C2)c(C)c1 (stereo not drawn)	inactive: 92%
CCc1ccc(-c2nc(CSCC(=O)N3CCN(c4ccc(F)cc4)CC3)c(C)o2)cc1	inactive: 77%
O=C(Oc1ccccc1)c1ccc(-n2cnnn2)cc1	inactive: 100%
CCc1ccccc1NC(=O)c1cc2c(Cl)nc3ccccc3c2s1	inactive: 68%
CC(C)(CO)NC(=O)c1cc(-c2ccc(Cl)cc2Cl)on1	inactive: 123%
CCOC(=O)c1ccc(NC2=CC(c3ccc(F)cc3)N(c3ccc(C(=O)OCC)cc3)C2=O)cc1 (stereo not drawn)	inactive: 68%
CCOc1ccccc1NC(=O)c1cc2c(=O)n(Cc3cccnc3)ccc2nc1C	inactive: 75%
CCCOc1cccc(C(=O)Nc2ccc(-c3cc4ccccc4oc3=O)c(C)c2)c1	inactive: 102%
Cc1c(NC(=O)c2ccc(Br)o2)cccc1-c1nc2ccccc2o1	inactive: 74%
Cc1cccc(C)c1NC(=O)CCS(=O)(=O)c1cccc2nonc12	inactive: 65%
COC(=O)c1ccc(-c2nc3ccc(C)cc3o2)cc1	inactive: 95%
CCOC(=O)c1c(C)[nH]c(C)c1S(=O)(=O)N1CCC(C(=O)Nc2ccc(C)c(Cl)c2)CC1	inactive: 63%
CC(=O)Nc1ccc(Nc2ncnc3c2c(-c2ccccc2)cn3-c2ccc(C)c(Cl)c2)cc1	inactive: 86%
O=C(Cc1ccccc1)NN1C(=O)CSC1=S	inactive: 110%
CCCSc1nc2sc3c(c2c(=O)n1-c1cccc(Br)c1)CC(C)(C)OC3	inactive: 67%
